Hit rate of the full screen: of about 16,000 compounds, about 120 (0.75%) were called active. Not shown: some 4% with an inconclusive outcome. Calls follow the shape of the dose curve; as a rule, active = well fitted inhibition curve with a large enough effect; inconclusive = small, poorly fitted or top-dose-only effect; inactive = no such curve, though single readings can be large or run the other way. Some of the results follow.
Each molecule was assayed against Rap guanine nucleotide exchange factor 3 (Homo sapiens) (UniProt O95398) (assay: Validation qHTS for antagonist of cAMP-regulated guanine nucleotide exchange factor 3 (EPAC1)). Details: EPAC1 Rap1B-BODIPY-GDP exchange, fluorescence; series mostly up to 150 µM; activity change, negative = inhibition: at the top concentration.
UniProt O95398, sequence (O95398 whole entry, looked up): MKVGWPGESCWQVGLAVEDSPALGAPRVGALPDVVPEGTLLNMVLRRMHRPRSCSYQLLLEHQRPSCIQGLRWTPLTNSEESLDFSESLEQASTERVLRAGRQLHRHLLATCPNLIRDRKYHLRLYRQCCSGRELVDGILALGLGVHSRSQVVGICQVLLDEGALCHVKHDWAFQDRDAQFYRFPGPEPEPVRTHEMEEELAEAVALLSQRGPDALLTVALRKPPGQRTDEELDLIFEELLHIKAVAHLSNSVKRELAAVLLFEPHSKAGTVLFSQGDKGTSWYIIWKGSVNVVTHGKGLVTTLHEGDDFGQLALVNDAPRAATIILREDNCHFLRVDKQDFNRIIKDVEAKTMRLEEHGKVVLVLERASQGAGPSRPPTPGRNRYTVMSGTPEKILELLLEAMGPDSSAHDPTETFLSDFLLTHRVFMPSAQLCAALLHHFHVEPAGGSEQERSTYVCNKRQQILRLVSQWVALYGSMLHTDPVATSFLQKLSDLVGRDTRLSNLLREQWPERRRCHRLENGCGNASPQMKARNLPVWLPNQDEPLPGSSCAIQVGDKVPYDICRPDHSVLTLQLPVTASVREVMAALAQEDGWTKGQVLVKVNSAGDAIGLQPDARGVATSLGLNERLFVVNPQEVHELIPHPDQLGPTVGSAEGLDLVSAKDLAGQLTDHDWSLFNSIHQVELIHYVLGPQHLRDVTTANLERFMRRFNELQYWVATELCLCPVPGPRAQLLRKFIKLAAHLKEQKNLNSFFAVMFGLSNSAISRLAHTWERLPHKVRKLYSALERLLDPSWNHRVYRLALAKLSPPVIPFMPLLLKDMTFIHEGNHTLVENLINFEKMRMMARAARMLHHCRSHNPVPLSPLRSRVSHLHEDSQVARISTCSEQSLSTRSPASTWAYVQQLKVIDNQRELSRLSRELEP
Summary of the method: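 Nucleotide exchange followed as fluorescence loss when BODIPY-GDP leaves Rap1B (480 nm excitation, 540 nm emission), read at 5 min intervals over 30 min. Reaction: 100 nM EPAC1, 250 nM RAP1B-BODIPY-GDP, 50 uM GDP; ATA and DMSO define normalization.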
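Also: plate controls were DMSO for no effect and ATA control for full effect; nearly all actives have a fitted effect of over 75% in size.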

Activity change, negative = inhibition, inactive:
Cc1cc(C(=O)NCc2nc(-c3cccc(NC(=O)c4cc(C)oc4C)c3)oc2C)nc(C)n1 6.27%, O=C(N[C@H]1CCC(=O)N(CCSc2ccc(Br)cc2)CC1)OCc1ccccc1 -0.101%, CC(C)=CCC1C(=O)N(c2ccccc2)N(c2ccccc2)C1=O 57.2%, CN1CCN(c2cc3c(cc2F)c(=O)c(C(=O)O)cn3-c2ccc(F)cc2)CC1 16.6%, O=C(O)CCCC[C@@H]1SC[C@@H]2NC(=O)N[C@@H]21 5.2%, C[N+]1(C)CCc2cc3c(cc2[C@@H]1[C@@H]1C(=O)Oc2c1ccc1c2OCO1)OCO3, Cn1cc(-c2nc3cnc(N4CCNCC4)nc3n(C)c2=O)c2ccccc21 -0.141%, Cc1cc(=O)[nH]c2ccc(O)cc12 -6.02%, CCOC(=O)Nc1ccc(NCc2ccc(F)cc2)nc1N, O=c1cnc2cnc(N3CCOCC3)nc2n1C[C@H]1CCCO1 21.4%, CCOC(=O)N1CCC(N2CCOc3ccc(CN4CCC(O)(c5cccnc5)CC4)cc3C2)CC1 2.96%, COc1cccc(Nc2ncc3nc(-c4cn(C)c5ccccc45)c(=O)n(CCC#N)c3n2)c1 1.53%, NCCC[C@@H](N)C(=O)O -6.84%, COCC(=O)Nc1c(I)c(C(=O)NCC(O)CO)c(I)c(C(=O)N(C)CC(O)CO)c1I (stereo not drawn) 8.99% [at 75.8 µM], COc1ccc(-n2c(=O)c(-c3ccc(F)cc3)nc3cnc(OC)nc32)cc1 15.8%, COc1c(C=O)c(O)cc2c1C(=O)c1ccccc1C2=O, CCOC(=O)/C=C/c1ccccc1S(=O)(=O)NC(C)(C)C -17.9%, CCC1CN(CC(=O)NC(C)c2c(C)nn(C)c2C)Cc2cc(OC)ccc2O1 (stereo not drawn) 5.2%, C[C@@H](CSc1ccc(Br)cc1)CN1CC[C@H](C(C)(C)C)CCC1=O -19.3%, NCCCCCCCCCCNS(=O)(=O)c1cccc2c(Cl)cccc12 -3.2%, CN(C)[C@@H]1C(=O)C(C(N)=O)=C(O)[C@@]2(O)C(=O)C3=C(O)c4c(O)ccc(Cl)c4[C@@H](O)[C@H]3C[C@@H]12, CCN1CCC(N[C@H]2C[C@@H](C(=O)NC)N(Cc3cccc4ccccc34)C2)CC1 -1.7%, COC(=O)[C@@H](NC(=O)C1CCCN(c2nc(C)c3ccc(C)cc3n2)C1)C(C)C (stereo partly drawn) 0.801%, OCC1CCCN(c2nc3cc4c(cc3cc2CNCc2cccs2)OCO4)C1 (stereo not drawn) 18.7%, COc1c2c(nc3ccccc13)OC(C(C)(O)CO)C2 (stereo not drawn) 0.666%, COc1ccc2c(c1)CCc1cnc(-n3ncc(C(=O)N(C)CC4CCCN(C)C4)c3C)nc1-2 (stereo not drawn) 6.75%, COc1cc2c(cc1OC)-c1c(OC)c(OC)cc3ccnc(c13)C2=O 2.42%, CC[C@@]1([C@@H]2O[C@@H]([C@H]3O[C@@](O)(CO)[C@H](C)C[C@@H]3C)C[C@@H]2C)CC[C@H]([C@]2(C)CC[C@]3(C[C@H](O)[C@@H](C)[C@@H]([C@@H](C)[C@@H](OC)[C@H](C)C(=O)O)O3)O2)O1 (stereo in doubt)
